According to paper PMC9911399, “Two distinct binding modes provide the RNA-binding protein RbFox with extraordinary sequence specificity”:
Changes are numbered by the printed parent chain; changes in the protein carry UniProt numbers. The list shows a part of the results.

T1: RBFOX1 RRM (Homo sapiens, UniProt Q9NWB1 109-208)
T1 sequence: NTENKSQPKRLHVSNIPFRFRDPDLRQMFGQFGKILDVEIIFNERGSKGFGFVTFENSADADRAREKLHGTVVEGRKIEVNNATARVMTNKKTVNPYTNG

B1: UAUAGCC (DNA:RNA)
RNA: GGGAGACCGGAAUUCAGAUUGUCCUAUAGCCUUAAAUCCCGUCGUAGCCACCA
DNA 1: CAATCTGAATTCCGGTCTCCC
DNA 2: TGGTGGCTACGACGGGATT
B2: UGUCCCU (DNA:RNA)
RNA: B1 RNA with A26G, A28C, G29C, C31U
DNA 1: CAATCTGAATTCCGGTCTCCC
DNA 2: TGGTGGCTACGACGGGATT
B3: GUCUUAU (DNA:RNA)
RNA: GGGAGACCGGAAUUCAGAUUGUCCGUCUUAUUUAAAUCCCGUCGUAGCCACCA
DNA 1: CAATCTGAATTCCGGTCTCCC
DNA 2: TGGTGGCTACGACGGGATT
B4: ACGAGGU (DNA:RNA)
RNA: B1 RNA with U25A, A26C, U27G, C30G, C31U
DNA 1: CAATCTGAATTCCGGTCTCCC
DNA 2: TGGTGGCTACGACGGGATT
B5: GGCGGGG (DNA:RNA)
RNA: B3 RNA with U26G, U28G, U29G, A30G, U31G
DNA 1: CAATCTGAATTCCGGTCTCCC
DNA 2: TGGTGGCTACGACGGGATT
B6: GUACUAG (DNA:RNA)
RNA: B3 RNA with C27A, U28C, U31G
DNA 1: CAATCTGAATTCCGGTCTCCC
DNA 2: TGGTGGCTACGACGGGATT
B7: GUAAAUU (DNA:RNA)
RNA: B3 RNA with C27A, U28A, U29A, A30U
DNA 1: CAATCTGAATTCCGGTCTCCC
DNA 2: TGGTGGCTACGACGGGATT
B8: CGUAGGU (DNA:RNA)
RNA: B1 RNA with U25C, A26G, C30G, C31U
DNA 1: CAATCTGAATTCCGGTCTCCC
DNA 2: TGGTGGCTACGACGGGATT
B9: UGGGUUA (DNA:RNA)
RNA: B3 RNA with G25U, U26G, C27G, U28G, A30U, U31A
DNA 1: CAATCTGAATTCCGGTCTCCC
DNA 2: TGGTGGCTACGACGGGATT
B10: AGGGAGA (DNA:RNA)
RNA: GGGAGACCGGAAUUCAGAUUGUCCAGGGAGAUUAAAUCCCGUCGUAGCCACCA
DNA 1: CAATCTGAATTCCGGTCTCCC
DNA 2: TGGTGGCTACGACGGGATT
B11: UCCAAGG (DNA:RNA)
RNA: B10 RNA with A25U, G26C, G27C, G28A, A31G
DNA 1: CAATCTGAATTCCGGTCTCCC
DNA 2: TGGTGGCTACGACGGGATT
B12: UAAUGCG (DNA:RNA)
RNA: B1 RNA with U27A, A28U, C31G
DNA 1: CAATCTGAATTCCGGTCTCCC
DNA 2: TGGTGGCTACGACGGGATT
B13: GAAGACU (DNA:RNA)
RNA: B10 RNA with A25G, G26A, G27A, G30C, A31U
DNA 1: CAATCTGAATTCCGGTCTCCC
DNA 2: TGGTGGCTACGACGGGATT
B14: ACCGAAG (DNA:RNA)
RNA: B10 RNA with G26C, G27C, G30A, A31G
DNA 1: CAATCTGAATTCCGGTCTCCC
DNA 2: TGGTGGCTACGACGGGATT
B15: GCCCUCU (DNA:RNA)
RNA: B3 RNA with U26C, U28C, A30C
DNA 1: CAATCTGAATTCCGGTCTCCC
DNA 2: TGGTGGCTACGACGGGATT
B16: UUACUGG (DNA:RNA)
RNA: B3 RNA with G25U, C27A, U28C, A30G, U31G
DNA 1: CAATCTGAATTCCGGTCTCCC
DNA 2: TGGTGGCTACGACGGGATT
B17: GCGGAAU (DNA:RNA)
RNA: B10 RNA with A25G, G26C, G30A, A31U
DNA 1: CAATCTGAATTCCGGTCTCCC
DNA 2: TGGTGGCTACGACGGGATT
B18: CGACCAC (DNA:RNA)
RNA: B10 RNA with A25C, G27A, G28C, A29C, G30A, A31C
DNA 1: CAATCTGAATTCCGGTCTCCC
DNA 2: TGGTGGCTACGACGGGATT
B19: CGUCCCU (DNA:RNA)
RNA: B1 RNA with U25C, A26G, A28C, G29C, C31U
DNA 1: CAATCTGAATTCCGGTCTCCC
DNA 2: TGGTGGCTACGACGGGATT
B20: AGCACAG (DNA:RNA)
RNA: B10 RNA with G27C, G28A, A29C, G30A, A31G
DNA 1: CAATCTGAATTCCGGTCTCCC
DNA 2: TGGTGGCTACGACGGGATT

molecular target: T1, RBFOX1 RRM; test: EMSA; HiTS-Eq, 1 nM pool, 10 min; buffer printed only for the single-RNA assays: 10 mM Tris pH 7.5, 150 mM NaCl, 3.4 mM EDTA, 0.001% NP-40, 30 C; details: tags: His6 N-terminal (pET28a); label: 5' 32P
In short: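 Relative association constants, normalised to the cognate motif, were derived by comparing read counts of each RNA species with those of the control reaction. The RNA sequenced was the free fraction, separated by 8% native PAGE after a 10 min equilibration in 50 µL of 1 nM 5′-radiolabelled RNA (7 randomized nucleotides) with increasing concentrations of purified wild-type or mutant RbFox RRM.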

Binder | binding signal
B1 | 0.00159 KA relative to UGCAUGU
B2 | 0.0126 KA relative to UGCAUGU
B3 | 0.00585 KA relative to UGCAUGU
B4 | 0.0133 KA relative to UGCAUGU
B5 | 0.0135 KA relative to UGCAUGU
B6 | 0.00891 KA relative to UGCAUGU
B7 | 0.0031 KA relative to UGCAUGU
B8 | 0.00972 KA relative to UGCAUGU
B9 | 0.0229 KA relative to UGCAUGU
B10 | 0.018 KA relative to UGCAUGU
B11 | 0.00701 KA relative to UGCAUGU
B12 | 0.0152 KA relative to UGCAUGU
B13 | 0.0105 KA relative to UGCAUGU
B14 | 0.00228 KA relative to UGCAUGU
B15 | 0.00803 KA relative to UGCAUGU
B16 | 0.0143 KA relative to UGCAUGU
B17 | 0.0175 KA relative to UGCAUGU
B18 | 0.00521 KA relative to UGCAUGU
B19 | 0.00441 KA relative to UGCAUGU
B20 | 0.00712 KA relative to UGCAUGU
